Measurements taken from publication PMC4336329 (PLoS ONE, 2015).
In all, about 310,000 compounds went through this assay and about 2,200 (0.71%) showed an effect of 50% or more. Effects have a minus sign here. Some of the results follow.

The molecules below were run against human ether-à-go-go-related gene (hERG) potassium channel (human, UniProt Q12809) (assay: primary screen, population patch clamp on CHO cells stably expressing hERG).
Sequence of human ether-à-go-go-related gene (hERG) potassium channel (Q12809 whole entry, looked up): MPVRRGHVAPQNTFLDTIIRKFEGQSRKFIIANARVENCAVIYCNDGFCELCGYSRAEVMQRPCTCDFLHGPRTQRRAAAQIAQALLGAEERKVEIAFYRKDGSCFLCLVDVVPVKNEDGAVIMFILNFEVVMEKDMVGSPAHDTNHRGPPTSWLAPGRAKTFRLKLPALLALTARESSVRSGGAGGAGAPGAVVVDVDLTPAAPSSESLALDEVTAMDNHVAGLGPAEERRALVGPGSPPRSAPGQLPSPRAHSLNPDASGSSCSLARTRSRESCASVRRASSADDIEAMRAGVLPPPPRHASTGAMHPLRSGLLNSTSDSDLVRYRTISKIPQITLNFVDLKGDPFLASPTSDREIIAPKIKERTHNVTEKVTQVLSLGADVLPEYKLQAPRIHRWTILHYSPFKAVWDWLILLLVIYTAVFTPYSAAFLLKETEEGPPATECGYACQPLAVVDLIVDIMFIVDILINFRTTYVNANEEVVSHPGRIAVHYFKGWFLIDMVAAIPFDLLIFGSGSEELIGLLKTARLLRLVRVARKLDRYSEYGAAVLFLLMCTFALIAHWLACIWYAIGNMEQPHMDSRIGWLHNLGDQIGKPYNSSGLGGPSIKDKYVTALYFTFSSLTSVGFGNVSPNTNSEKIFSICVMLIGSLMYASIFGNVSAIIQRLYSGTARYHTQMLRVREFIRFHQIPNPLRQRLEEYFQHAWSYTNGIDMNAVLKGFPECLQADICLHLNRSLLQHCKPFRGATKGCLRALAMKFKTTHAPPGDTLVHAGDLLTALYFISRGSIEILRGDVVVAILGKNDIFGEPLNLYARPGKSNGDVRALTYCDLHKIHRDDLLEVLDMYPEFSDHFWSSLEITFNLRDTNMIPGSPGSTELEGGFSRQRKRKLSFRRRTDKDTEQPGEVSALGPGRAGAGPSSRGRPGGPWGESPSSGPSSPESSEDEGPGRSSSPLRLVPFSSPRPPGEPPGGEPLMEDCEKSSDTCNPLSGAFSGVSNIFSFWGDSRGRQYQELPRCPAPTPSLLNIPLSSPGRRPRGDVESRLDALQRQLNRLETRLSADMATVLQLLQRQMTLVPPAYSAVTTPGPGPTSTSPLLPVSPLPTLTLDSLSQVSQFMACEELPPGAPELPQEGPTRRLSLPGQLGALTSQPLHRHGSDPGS

Row | SMILES | hERG current change (%, negative = inhibition) at 1uM [%]
1 | COc1cccc(NS(=O)(=O)c2ccc3c(c2)NC(=O)C(C)C(=O)N3)c1 (stereo not drawn) | 10
2 | CC(C)c1ccc(NC2CCCN(C(=O)CCN3Cc4ccccc4C3=O)C2)cc1 (stereo not drawn) | -0.383
3 | CCc1cccc2c(C(=O)C(NCCOC)c3ccccc3)c[nH]c12 (stereo not drawn) | 10.7
4 | COc1c(Br)cc([N+](=O)[O-])c(OC)c1C(=O)NC(=O)Nc1nc(C)cc(C)n1 | 5.64
5 | C#CCOCCOCCOCCNc1nc(N2CCN(C(=O)[C@H](CCC(=O)O)n3cc(C(N)Cc4ccc(O)cc4)nn3)CC2)nc(N2CCN(C(=O)[C@H](CCC(=O)O)n3cc(C(N)CC(C)C)nn3)CC2)n1.Cl (stereo partly drawn) | 8.94
6 | CCN(C(=O)C(C)N1C(=O)/C(=C/c2ccco2)SC1=S)C1CCS(=O)(=O)C1 (stereo not drawn) | -1.05
7 | O=C(NCCCSc1ccccc1)c1cnc(Cl)c(Cl)c1 | 5.05
8 | CN1CCC(N(C)C(=O)c2cc(=O)c3ccccc3o2)CC1 | 7.98
9 | COc1cc(-c2nnc(CSc3nnc4nc(C)cc(C)n34)o2)cc(OC)c1OC | 12.6
10 | O=C1NC(=O)/C(=C/c2ccc(OS(=O)(=O)c3ccc(F)cc3F)cc2)N1 | 13.2
11 | CN(C)c1c(N)[nH]c2c(c1=O)c(=O)n(C)c(=O)n2C | -0.391
12 | CC(=O)Nc1ccc(Nc2ncnc3c2cnn3-c2cccc(C)c2)cc1 | 9.23
13 | CCOC(=O)CNC(=O)CSc1nc2nc(C)c(Br)cc2[nH]1 | 6.5
14 | CC(c1ccon1)N(C)C(=O)c1ccc(OC2CCN(C(=O)C3CC3)CC2)cc1 (stereo not drawn) | 7.78
15 | CCOc1ccccc1N1CCN(C(=O)c2c(C)noc2C)CC1 | 8.11
16 | O=C(CCS(=O)(=O)c1ccc(Br)cc1)NCc1cccs1 | 7.69
17 | COC(=O)C1=C(C(=O)OC)[C@@H]2N(C)c3ccc(OC)cc3[C@@]23C[C@@H](C(=O)OC)N=C3N1 | -5.71
18 | O=C1NC(c2ccccc2)=NC1(Nc1ccccn1)C(F)(F)F (stereo not drawn) | -1.83
19 | Cc1ccc(OCC(=O)NNc2c3ccccc3nc3ccccc23)cc1 | 14.2
20 | Cn1c(=O)n(C)c2cc(NS(C)(=O)=O)ccc21 | 8.26
21 | COc1ccc(C2SCC(C(=O)O)N2C(C)=O)cc1 (stereo not drawn) | 13.9

Row | SMILES | hERG current change (%, negative = inhibition) at 1uM [%]
22 | O=C1CC(c2ccc3c(c2)OCO3)c2cc3c(cc2N1)OCCO3 (stereo not drawn) | 6.93
23 | CS(=O)(=O)N(CC(=O)N1CCN(C(c2ccccc2)c2ccccc2)CC1)C1CCCCC1 | 4.66
24 | O=c1c2cn[nH]c2[nH]c(=S)n1-c1cccc(Cl)c1 | 11.5
25 | O=c1[nH]c(=S)n(-c2ccccc2)c(O)c1C=NCc1ccccn1 | 2.46
26 | O=C1CC(CC(=O)N/N=C/c2ccccc2[N+](=O)[O-])=NN1 | 16.6
27 | Cc1ccc2c(c1)C(=O)CC(c1ccc3c(c1)OCCO3)O2 (stereo not drawn) | 6.86
28 | CC(=O)C1=C(C)NC(SCC(N)=O)=C(C#N)C1c1cccs1 (stereo not drawn) | 1.99
29 | CCCCN(C(=O)c1ccco1)c1c(N)n(CCC)c(=O)[nH]c1=O | 3.28
30 | CCN1CCN(C(=O)CCn2c(=O)c3cccn3c3cccnc32)CC1 | 7.54
31 | CC1CCCC(C)N1C(=O)Cc1ccccc1 (stereo not drawn) | 5.01
32 | Cc1cc(C)nc(NC(=O)CSc2nn(-c3ccccc3)c(=S)s2)n1 | 10
33 | COc1ccc(/C=N/N(C(C)=O)c2nc(-c3ccc(C)cc3)cs2)cc1 | 10
34 | O=C(CN1CCN(CN2C(=O)NC3(CCCCCC3)C2=O)CC1)Nc1ccc(F)cc1 | 11.8
35 | COc1cccc(Nc2nc3ccccc3nc2-n2nc(C)cc2C)c1 | 17.8
36 | COc1ccc(N(C(C)=O)S(=O)(=O)c2cccc3cccnc23)cc1 | 8.13
37 | Cc1ccc(-c2noc(CN(C)C(=O)c3ccc(Br)o3)n2)cc1 | 1.11
38 | O=c1c2ccccc2oc2ccc(C#CC3(O)CCCCC3)cc12 | 2.36
39 | CCOC(=O)/C=C1\CC(=O)Nc2nonc2N1 | 0.0361
40 | CC1(C)CC(=O)C(N=Nc2cc(Cl)c(Cl)c(Cl)c2)=C(O)C1 | 12.8
41 | CCOc1ccccc1C1C(C(=O)Nc2ccccc2OC)=C(C)Nc2nnnn21 (stereo not drawn) | 7.72
42 | O=C(Cc1ccc(-n2c(=O)[nH]c3ccccc3c2=O)cc1)N1CCN(c2ccccc2)CC1 | 8.5
